From patent US20210070868A1 (published 2021)

What was measured:
[1] = target: T1, wild-type decoyMET (extracellular portion of human HGFR/MET: SEMA, PSI, IPT-1 to IPT-4) (UniProt P08581 25-932); test: ELISA
T1 chain: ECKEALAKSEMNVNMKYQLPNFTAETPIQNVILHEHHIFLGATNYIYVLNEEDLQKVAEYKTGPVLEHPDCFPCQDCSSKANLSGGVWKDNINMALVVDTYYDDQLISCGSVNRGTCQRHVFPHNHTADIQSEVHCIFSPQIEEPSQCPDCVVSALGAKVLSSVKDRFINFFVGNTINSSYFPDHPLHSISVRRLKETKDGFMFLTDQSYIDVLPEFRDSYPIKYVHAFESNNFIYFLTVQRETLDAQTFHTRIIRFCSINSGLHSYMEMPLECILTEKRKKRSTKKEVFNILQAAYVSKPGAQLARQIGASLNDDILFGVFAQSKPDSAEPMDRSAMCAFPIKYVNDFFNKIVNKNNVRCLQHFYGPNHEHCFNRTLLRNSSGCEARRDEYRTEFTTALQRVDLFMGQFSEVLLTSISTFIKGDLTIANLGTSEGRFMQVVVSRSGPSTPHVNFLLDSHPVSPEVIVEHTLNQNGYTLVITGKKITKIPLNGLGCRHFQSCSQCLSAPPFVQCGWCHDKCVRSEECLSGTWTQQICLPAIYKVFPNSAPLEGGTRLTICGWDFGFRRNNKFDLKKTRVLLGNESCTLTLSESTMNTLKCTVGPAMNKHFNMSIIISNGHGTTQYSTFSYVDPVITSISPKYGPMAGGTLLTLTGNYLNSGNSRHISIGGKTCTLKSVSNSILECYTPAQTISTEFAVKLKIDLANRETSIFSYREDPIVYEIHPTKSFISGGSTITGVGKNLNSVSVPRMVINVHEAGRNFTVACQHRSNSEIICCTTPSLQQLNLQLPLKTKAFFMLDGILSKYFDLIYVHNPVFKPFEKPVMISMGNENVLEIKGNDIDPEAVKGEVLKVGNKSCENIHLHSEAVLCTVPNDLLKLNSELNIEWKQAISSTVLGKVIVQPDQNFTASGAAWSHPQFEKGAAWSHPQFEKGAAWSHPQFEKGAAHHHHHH

[2] = target: Hepatocyte Growth Factor (HGF) (UniProt P14210 32-728); test: ELISA
Sequence of UniProt P14210 (P14210 32-728): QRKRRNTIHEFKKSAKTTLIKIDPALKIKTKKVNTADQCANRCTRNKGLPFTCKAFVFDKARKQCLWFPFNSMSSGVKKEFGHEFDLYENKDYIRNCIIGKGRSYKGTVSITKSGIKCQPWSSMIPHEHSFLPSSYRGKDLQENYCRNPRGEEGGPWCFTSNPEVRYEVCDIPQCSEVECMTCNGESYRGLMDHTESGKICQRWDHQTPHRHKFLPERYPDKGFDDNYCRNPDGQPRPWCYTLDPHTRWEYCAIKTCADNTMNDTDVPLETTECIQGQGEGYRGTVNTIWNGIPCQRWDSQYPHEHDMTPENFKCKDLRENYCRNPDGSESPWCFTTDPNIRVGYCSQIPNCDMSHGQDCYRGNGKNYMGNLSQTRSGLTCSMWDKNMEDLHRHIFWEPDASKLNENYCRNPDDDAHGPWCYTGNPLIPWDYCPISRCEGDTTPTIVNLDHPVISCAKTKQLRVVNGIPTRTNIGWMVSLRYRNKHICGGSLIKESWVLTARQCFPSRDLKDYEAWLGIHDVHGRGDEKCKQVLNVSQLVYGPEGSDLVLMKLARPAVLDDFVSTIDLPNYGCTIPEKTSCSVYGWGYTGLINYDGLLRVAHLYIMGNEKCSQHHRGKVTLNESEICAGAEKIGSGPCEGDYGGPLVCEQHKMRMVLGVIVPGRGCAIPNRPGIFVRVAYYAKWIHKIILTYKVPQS

B1: fusion protein with decoyMET^K842E at the N-terminal, linker L45 and scMvDN30 at the C-terminal (other)
chain: ECKEALAKSEMNVNMKYQLPNFTAETPIQNVILHEHHIFLGATNYIYVLNEEDLQKVAEYKTGPVLEHPDCFPCQDCSSKANLSGGVWKDNINMALVVDTYYDDQLISCGSVNRGTCQRHVFPHNHTADIQSEVHCIFSPQIEEPSQCPDCVVSALGAKVLSSVKDRFINFFVGNTINSSYFPDHPLHSISVRRLKETKDGFMFLTDQSYIDVLPEFRDSYPIKYVHAFESNNFIYFLTVQRETLDAQTFHTRIIRFCSINSGLHSYMEMPLECILTEKRKKRSTKKEVFNILQAAYVSKPGAQLARQIGASLNDDILFGVFAQSKPDSAEPMDRSAMCAFPIKYVNDFFNKIVNKNNVRCLQHFYGPNHEHCFNRTLLRNSSGCEARRDEYRTEFTTALQRVDLFMGQFSEVLLTSISTFIKGDLTIANLGTSEGRFMQVVVSRSGPSTPHVNFLLDSHPVSPEVIVEHTLNQNGYTLVITGKKITKIPLNGLGCRHFQSCSQCLSAPPFVQCGWCHDKCVRSEECLSGTWTQQICLPAIYKVFPNSAPLEGGTRLTICGWDFGFRRNNKFDLKKTRVLLGNESCTLTLSESTMNTLKCTVGPAMNKHFNMSIIISNGHGTTQYSTFSYVDPVITSISPKYGPMAGGTLLTLTGNYLNSGNSRHISIGGKTCTLKSVSNSILECYTPAQTISTEFAVKLKIDLANRETSIFSYREDPIVYEIHPTKSFISGGSTITGVGKNLNSVSVPRMVINVHEAGRNFTVACQHRSNSEIICCTTPSLQQLNLQLPLKTKAFFMLDGILSKYFDLIYVHNPVFEPFEKPVMISMGNENVLEIKGNDIDPEAVKGEVLKVGNKSCENIHLHSEAVLCTVPNDLLKLNSELNIEWKQAISSTVLGKVIVQPDQNFTAEAAAKEAAAKEAAAKEAAAKAAAEAAAKEAAAKEAAAKEAAAKADIVLTQSPASLAVSLGQRATISCKASQSVDYDGGSYMSWFQQRPGQPPKLLISAASNLESGIPARFSGSGSGTDFTLNIHPVEEEDVATYYCQQSYEDPLTFGAGTKVEIKRTVAAPSVFIFPPSDEQLKSGTASVVCLLNNFYPREAKVQWKVDNALQSGNSQESVTEQDSKDSTYSLSSTLTLSKADYEKHKVYACEVTHQGLSSPVTKSFNRGECGGSSGSGSGSTGTSSSGTGTSAGTTGTSASTSGSGSGGGGGSGGGGSAGGTATAGASSGSVQLQQPGTELVKPGASVKLSCKASGYTFTSYWIHWVKQRPGQGLEWIGEINPSSGRTNYNEKFKNKVTVTVDKSSTTAYMQLSNLTSEDSAVYYCASRGYWGQGTTLTVSSASTKGPSVFPLAPSSKSTSGGTAALGCLVKDYFPEPVTVSWNSGALTSGVHTFPAVLQSSGLYSLSSVVTVPSSSLGTQTYICNVNHKPSNTKVDKKVEPKSCDKTHTTRGAAWSHPQFEKGAAWSHPQFEKGAAWSHPQFEKGAAHHHHHH
For B1, the Kd [1] was 29.4 nM and the Kd [2] was 0.148 nM.

B2: fusion protein with scMvDN30 at the N-terminal, linker L45 and decoyMET^K842E at the C-terminal (other)
chain: DIVLTQSPASLAVSLGQRATISCKASQSVDYDGGSYMSWFQQRPGQPPKLLISAASNLESGIPARFSGSGSGTDFTLNIHPVEEEDVATYYCQQSYEDPLTFGAGTKVEIKRTVAAPSVFIFPPSDEQLKSGTASVVCLLNNFYPREAKVQWKVDNALQSGNSQESVTEQDSKDSTYSLSSTLTLSKADYEKHKVYACEVTHQGLSSPVTKSFNRGECGGSSGSGSGSTGTSSSGTGTSAGTTGTSASTSGSGSGGGGGSGGGGSAGGTATAGASSGSVQLQQPGTELVKPGASVKLSCKASGYTFTSYWIHWVKQRPGQGLEWIGEINPSSGRTNYNEKFKNKVTVTVDKSSTTAYMQLSNLTSEDSAVYYCASRGYWGQGTTLTVSSASTKGPSVFPLAPSSKSTSGGTAALGCLVKDYFPEPVTVSWNSGALTSGVHTFPAVLQSSGLYSLSSVVTVPSSSLGTQTYICNVNHKPSNTKVDKKVEPKSCDKTHTAEAAAKEAAAKEAAAKEAAAKAAAEAAAKEAAAKEAAAKEAAAKAECKEALAKSEMNVNMKYQLPNFTAETPIQNVILHEHHIFLGATNYIYVLNEEDLQKVAEYKTGPVLEHPDCFPCQDCSSKANLSGGVWKDNINMALVVDTYYDDQLISCGSVNRGTCQRHVFPHNHTADIQSEVHCIFSPQIEEPSQCPDCVVSALGAKVLSSVKDRFINFFVGNTINSSYFPDHPLHSISVRRLKETKDGFMFLTDQSYIDVLPEFRDSYPIKYVHAFESNNFIYFLTVQRETLDAQTFHTRIIRFCSINSGLHSYMEMPLECILTEKRKKRSTKKEVFNILQAAYVSKPGAQLARQIGASLNDDILFGVFAQSKPDSAEPMDRSAMCAFPIKYVNDFFNKIVNKNNVRCLQHFYGPNHEHCFNRTLLRNSSGCEARRDEYRTEFTTALQRVDLFMGQFSEVLLTSISTFIKGDLTIANLGTSEGRFMQVVVSRSGPSTPHVNFLLDSHPVSPEVIVEHTLNQNGYTLVITGKKITKIPLNGLGCRHFQSCSQCLSAPPFVQCGWCHDKCVRSEECLSGTWTQQICLPAIYKVFPNSAPLEGGTRLTICGWDFGFRRNNKFDLKKTRVLLGNESCTLTLSESTMNTLKCTVGPAMNKHFNMSIIISNGHGTTQYSTFSYVDPVITSISPKYGPMAGGTLLTLTGNYLNSGNSRHISIGGKTCTLKSVSNSILECYTPAQTISTEFAVKLKIDLANRETSIFSYREDPIVYEIHPTKSFISGGSTITGVGKNLNSVSVPRMVINVHEAGRNFTVACQHRSNSEIICCTTPSLQQLNLQLPLKTKAFFMLDGILSKYFDLIYVHNPVFEPFEKPVMISMGNENVLEIKGNDIDPEAVKGEVLKVGNKSCENIHLHSEAVLCTVPNDLLKLNSELNIEWKQAISSTVLGKVIVQPDQNFTASGAAWSHPQFEKGAAWSHPQFEKGAAWSHPQFEKGAAHHHHHH
B2 showed a Kd [1] of 6.21 nM and a Kd [2] of 0.187 nM.

B3: fusion protein with decoyMET^K842E at the N-terminal, linker L60 and scMvDN30 at the C-terminal (other)
chain: ECKEALAKSEMNVNMKYQLPNFTAETPIQNVILHEHHIFLGATNYIYVLNEEDLQKVAEYKTGPVLEHPDCFPCQDCSSKANLSGGVWKDNINMALVVDTYYDDQLISCGSVNRGTCQRHVFPHNHTADIQSEVHCIFSPQIEEPSQCPDCVVSALGAKVLSSVKDRFINFFVGNTINSSYFPDHPLHSISVRRLKETKDGFMFLTDQSYIDVLPEFRDSYPIKYVHAFESNNFIYFLTVQRETLDAQTFHTRIIRFCSINSGLHSYMEMPLECILTEKRKKRSTKKEVFNILQAAYVSKPGAQLARQIGASLNDDILFGVFAQSKPDSAEPMDRSAMCAFPIKYVNDFFNKIVNKNNVRCLQHFYGPNHEHCFNRTLLRNSSGCEARRDEYRTEFTTALQRVDLFMGQFSEVLLTSISTFIKGDLTIANLGTSEGRFMQVVVSRSGPSTPHVNFLLDSHPVSPEVIVEHTLNQNGYTLVITGKKITKIPLNGLGCRHFQSCSQCLSAPPFVQCGWCHDKCVRSEECLSGTWTQQICLPAIYKVFPNSAPLEGGTRLTICGWDFGFRRNNKFDLKKTRVLLGNESCTLTLSESTMNTLKCTVGPAMNKHFNMSIIISNGHGTTQYSTFSYVDPVITSISPKYGPMAGGTLLTLTGNYLNSGNSRHISIGGKTCTLKSVSNSILECYTPAQTISTEFAVKLKIDLANRETSIFSYREDPIVYEIHPTKSFISGGSTITGVGKNLNSVSVPRMVINVHEAGRNFTVACQHRSNSEIICCTTPSLQQLNLQLPLKTKAFFMLDGILSKYFDLIYVHNPVFEPFEKPVMISMGNENVLEIKGNDIDPEAVKGEVLKVGNKSCENIHLHSEAVLCTVPNDLLKLNSELNIEWKQAISSTVLGKVIVQPDQNFTGGSSGSGSGSTGTSSSGTGTSAGTTGTSASTSGSGSGGGGGSGGGGSAGGTATAGASSGSDIVLTQSPASLAVSLGQRATISCKASQSVDYDGGSYMSWFQQRPGQPPKLLISAASNLESGIPARFSGSGSGTDFTLNIHPVEEEDVATYYCQQSYEDPLTFGAGTKVEIKRTVAAPSVFIFPPSDEQLKSGTASVVCLLNNFYPREAKVQWKVDNALQSGNSQESVTEQDSKDSTYSLSSTLTLSKADYEKHKVYACEVTHQGLSSPVTKSFNRGECGGSSGSGSGSTGTSSSGTGTSAGTTGTSASTSGSGSGGGGGSGGGGSAGGTATAGASSGSVQLQQPGTELVKPGASVKLSCKASGYTFTSYWIHWVKQRPGQGLEWIGEINPSSGRTNYNEKFKNKVTVTVDKSSTTAYMQLSNLTSEDSAVYYCASRGYWGQGTTLTVSSASTKGPSVFPLAPSSKSTSGGTAALGCLVKDYFPEPVTVSWNSGALTSGVHTFPAVLQSSGLYSLSSVVTVPSSSLGTQTYICNVNHKPSNTKVDKKVEPKSCDKTHTTRGAAWSHPQFEKGAAWSHPQFEKGAAWSHPQFEKGAAHHHHHH
In the case of B3, the Kd [1] is reported as 34.3 nM and the Kd [2] is reported as 0.174 nM.

B4: single chain MvDN30 (anti-HGFR single-chain Fab fragment) (Fab)
chain: DIVLTQSPASLAVSLGQRATISCKASQSVDYDGGSYMSWFQQRPGQPPKLLISAASNLESGIPARFSGSGSGTDFTLNIHPVEEEDVATYYCQQSYEDPLTFGAGTKVEIKRTVAAPSVFIFPPSDEQLKSGTASVVCLLNNFYPREAKVQWKVDNALQSGNSQESVTEQDSKDSTYSLSSTLTLSKADYEKHKVYACEVTHQGLSSPVTKSFNRGECGGSSGSGSGSTGTSSSGTGTSAGTTGTSASTSGSGSGGGGGSGGGGSAGGTATAGASSGSQLQQPGTELVKPGASVKLSCKASGYTFTSYWIHWVKQRPGQGLEWIGEINPSSGRTNYNEKFKNKVTVTVDKSSTTAYMQLSNLTSEDSAVYYCASRGYWGQGTTLTVSSASTKGPSVFPLAPSSKSTSGGTAALGCLVKDYFPEPVTVSWNSGALTSGVHTFPAVLQSSGLYSLSSVVTVPSSSLGTQTYICNVNHKPSNTKVDKKVEPKSCDKTHTTGTRGAAWSHPQFEKGAAWSHPQFEKGAAWSHPQFEKGAAHHHHHH
With B4 the Kd [1] was 4.53 nM.
